Molecular target: Cy5-Rad6 (human, UniProt P49459, Cy5 on the N-terminus (one Cy5 dye per protein))
Test: FRET or BRET

binding result: binds
B1: Rad18 (enzyme)
chain: not shown

Source: paper PMC7887432 (Biochemistry, 2020)
